# Experimental data taken from article PMC4336329 (PLoS ONE, 2015).
# The whole screen tested about 310,000 compounds, of which about 2,200 (0.71%) showed an effect of 50% or more. Effects have a minus sign here. This is one part of the list.
# Biological target: human ether-à-go-go-related gene (hERG) potassium channel (human, UniProt Q12809)
# Test: primary screen, population patch clamp on CHO cells stably expressing hERG
# human ether-à-go-go-related gene (hERG) potassium channel, sequence (Q12809 whole entry, looked up): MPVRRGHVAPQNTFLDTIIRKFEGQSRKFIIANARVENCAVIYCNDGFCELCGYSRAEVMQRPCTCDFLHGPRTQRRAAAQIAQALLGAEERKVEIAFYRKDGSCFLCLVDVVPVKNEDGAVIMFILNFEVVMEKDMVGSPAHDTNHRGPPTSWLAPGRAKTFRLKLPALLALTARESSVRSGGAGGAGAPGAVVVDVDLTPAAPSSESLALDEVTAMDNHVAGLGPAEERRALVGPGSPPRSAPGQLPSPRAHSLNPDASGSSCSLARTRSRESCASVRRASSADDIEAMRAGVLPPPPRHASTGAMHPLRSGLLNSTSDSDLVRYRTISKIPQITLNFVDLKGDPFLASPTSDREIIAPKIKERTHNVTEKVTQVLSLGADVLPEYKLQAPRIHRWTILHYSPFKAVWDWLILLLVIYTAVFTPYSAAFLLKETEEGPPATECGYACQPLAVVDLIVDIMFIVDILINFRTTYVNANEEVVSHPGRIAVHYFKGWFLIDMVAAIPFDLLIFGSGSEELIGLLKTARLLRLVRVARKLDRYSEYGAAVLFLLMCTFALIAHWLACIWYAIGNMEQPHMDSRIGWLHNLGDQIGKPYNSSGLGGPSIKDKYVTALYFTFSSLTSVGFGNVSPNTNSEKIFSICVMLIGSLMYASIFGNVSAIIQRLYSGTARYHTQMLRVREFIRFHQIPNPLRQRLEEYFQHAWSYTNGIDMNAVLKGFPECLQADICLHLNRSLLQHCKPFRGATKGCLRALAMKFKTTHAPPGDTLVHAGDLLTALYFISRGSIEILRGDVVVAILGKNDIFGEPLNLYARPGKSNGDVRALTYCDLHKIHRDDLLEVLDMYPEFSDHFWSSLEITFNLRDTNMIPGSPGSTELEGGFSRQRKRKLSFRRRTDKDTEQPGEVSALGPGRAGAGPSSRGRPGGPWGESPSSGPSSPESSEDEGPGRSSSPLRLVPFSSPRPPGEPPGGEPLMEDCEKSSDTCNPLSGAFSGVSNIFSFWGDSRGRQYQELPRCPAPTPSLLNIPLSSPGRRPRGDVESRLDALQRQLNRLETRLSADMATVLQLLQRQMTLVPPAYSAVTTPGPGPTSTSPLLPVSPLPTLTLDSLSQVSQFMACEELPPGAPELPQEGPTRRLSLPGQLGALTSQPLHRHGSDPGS
row,SMILES,"hERG current change (%, negative = inhibition) at 1uM [%]"
1,CCCC(=O)NC(Nc1c(C)n(C)n(-c2ccccc2)c1=O)C(Cl)(Cl)Cl (stereo not shown),-4.06
2,Cc1cc(Oc2ccc(C#N)cc2)nc(NCc2ccccc2)n1,10.1
3,O=c1oc2ccccc2nc1/C=C(\O)c1ccccc1,17.7
4,CCOc1ccccc1NC(=O)Cn1c(=O)n(-c2ccc(OC)cc2OC)c(=O)c2c(C)c(C(=O)N(CC)CC)sc21,10.5
5,CCC1CCC2(CC1)NC(=O)N(CC(=O)Nc1cc(C)on1)C2=O (stereo not shown),11
6,CC(C)Nc1nc(SCC(N)=O)nc(N2CCOCC2)n1,20.2
7,C[C@@H](NC(=O)/C(C#N)=C/c1ccc(O)c(O)c1)c1ccccc1,9.35
8,CCOc1ccc(N(CC(=O)NC2CCCCC2)C(=O)CNC(=O)c2cccs2)cc1,-1.15
9,COc1ccc2nc(SCCC(=O)O)cc(C)c2c1,16.5
10,COc1ccccc1C(=O)NCC(=O)N/N=C/c1cc(Br)ccc1OC(=O)/C=C\c1ccco1,3.41
11,Cc1ccc(-n2c(O)c(/C=N/N3CCCCC3c3cccnc3)c(=O)[nH]c2=S)cc1 (stereo not shown),6.13
12,O=C(O)c1cccc(-n2c(-c3cnccn3)n[nH]c2=S)c1,15.5
13,Cc1cc(F)ccc1NC(=S)NC1CCCC1,16
14,O=C(O)Cc1ccc(NC(=S)NCc2ccco2)cc1,9.12
15,Cn1nc(C(F)(F)F)c(-c2ccc(Br)cc2)c1NC(=O)C1CCC1C(=O)O (stereo not shown),17.4
16,CC1=C(C(=O)OCc2ccccc2)C(c2ccc(Cl)cc2)NC(=O)N1C (stereo not shown),20.6
17,Cc1ccc2oc(=O)c3cnn(CC(=O)N(CCN(C)C)Cc4ccco4)c3c2c1,-6.08
18,CCN(CC#CCC1(O)c2ccccc2-c2ccccc21)C(C)C,-0.0358
19,CC(=O)C1=C(c2ccccc2)N(C(C)=O)n2c(C)nnc2S1,14.3
20,COCC1CCN(C(=O)c2oc3c(F)cccc3c2C)C1 (stereo not shown),4.46
21,O=C(OCC(=O)N1CCN(S(=O)(=O)c2ccc(Cl)cc2)CC1)c1ccc([N+](=O)[O-])o1,9.34
22,O=C(O)c1ccc(N/N=C/c2ccc(OC(=O)c3ccccc3Cl)cc2)cc1,-0.568
23,O=C(NCC1CC1)c1onc(CSc2nc3ccccc3[nH]2)c1C(=O)NCC1CC1,-28.3
24,CC(=O)Nc1ccc(Oc2ccc(S(=O)(=O)N3CCCC3)cn2)cc1,1.99
25,CCN(C(=O)COc1ccc(C)nc1[N+](=O)[O-])C1CCS(=O)(=O)C1 (stereo not shown),9.42
26,NC(=O)C1=C[C@H](c2csc3ccccc23)C[C@H](OCCCCO)O1,7.73
27,CCc1noc(C)c1C(=O)NCCN1C(=O)S/C(=C\c2ccc(OC)cc2)C1=O,7.03
28,O=C(COC(=O)/C=C/c1cccc(C(F)(F)F)c1)NCc1ccccc1,4.72

row,SMILES,"hERG current change (%, negative = inhibition) at 1uM [%]"
1,COc1ccc(S(=O)(=O)Nc2cccc(N(C)S(C)(=O)=O)c2)cc1Br,8.18
2,COC(=O)CN(CCc1ccccc1)S(=O)(=O)c1ccc(OC)c(OC)c1,-8.57
3,CC(=O)N1c2ccccc2S(=O)(=O)c2ccccc21,4.37
4,COc1ccccc1CNC(=O)C1CCN(c2nc3ccccc3o2)CC1,-4.77
5,CCOC(=O)c1c(Nc2nc(C)c(C(=O)NC)s2)sc(C)c1C,-17.2
6,Clc1ccc2[nH]c(-c3ccccc3)cc2c1,8.04
7,CCOC(=O)C1=C(C)NC(=O)NC1c1ccc(OC(C)C(=O)O)c(OC)c1 (stereo not shown),6.22
8,O=C(Cn1c(=O)sc2ccccc21)Nc1ccccc1C(=O)O,8.3
9,C=CCn1c(N)c(C(=O)Nc2ccc(C)cc2)sc1=S,13.4
10,CC(C)[C@H](NC(=O)OC(C)(C)C)c1nnc(S(=O)(=O)Cc2c(F)cccc2Cl)o1,-1.55
11,Cc1cc(=O)n2c3ccccc3n(CC(O)CN3CCN(Cc4ccccc4)CC3)c2c1C#N (stereo not shown),-31
12,O=C1C=C(c2ccc3c(c2)oc2ccccc23)C[C@@H](c2ccc(Cl)cc2)C1,16
13,CCOC(=O)N1CCN(CC(=O)Nc2ccc(F)c(F)c2)CC1,8.59
14,CCn1nc(NC(=O)c2ccncc2)c2cc3ccccc3nc21,8.34
15,CN1CCN(c2ccccc2NC(=O)c2ccc(-c3ccc(Cl)c(Cl)c3)o2)CC1,7.83
16,COc1ccccc1CNCc1cc(OC)c(OC)c(OC)c1.O=C(O)C(=O)O,16.5
17,O=C(O)Cn1c(O)c(C=Nc2ccccc2)sc1=S [14736554],11.2
18,O=C(COC(=O)Cc1cccc(C(F)(F)F)c1)NCc1ccco1,5.82
19,Cc1ccc(/C=N/NC(=O)c2ccc(N(C)S(=O)(=O)c3ccccc3)cc2)cc1,-4.69
20,COc1ccc(C(=O)Nc2cc(OC)c(Cl)cc2OC)cc1,-8.27
21,CCCSc1nnc2c(n1)OC(c1cccn1C)N(C(C)=O)c1ccccc1-2 (stereo not shown),0.795
22,CONC(=O)C1CCN(C(=O)OCc2ccccc2)CC1,15.8
23,CCn1c(O)c(/C=C2\C=NN=C2c2ccccc2)sc1=S,13.8
24,Cc1csc(N2CCN(c3cc4c(cc3Cl)nc(-c3ccncc3)n4CCCN3CCCC3)CC2)n1,-16.8
25,COc1cccc(CN2CCC(n3nccc3NC(=O)CCCc3ccccc3)CC2)c1O,-55.4
26,Cc1csc(N2CCCC2c2nc3cc(Cl)c(N4CCCCC4)cc3n2CCOCCO)n1 (stereo not shown),-2.57
27,O=c1c2oc3ccccc3c2ncn1Cc1ccccc1Cl,13.1
